Measured values reported in PubChem BioAssay AID1963861 (Molecular Pharmacology Branch, DTP, NCI, 2024).
The source holds more than one record for some entries. Only these are listed. There may be further records. The values listed for one entry are repeats in other runs, samples, wells, individuals or studies. Signs of the kind (2×) say how often a value occurs here. Dates in brackets are months of testing.

Test system: 885724-159-R-J1-PDC KRAS PDC multicell spheroid viability
Assay: Anticancer human tumor 885724-159-R-J1-PDC patient-derived pancreatic adenocarcinoma cell line growth inhibition [KRAS2]
Conditions: for viability, T/C: stronger effect = lower value; for IC50: compound alone
Text: Multicellular complex tumor spheroid response to RAS pathway inhibitors in combination with a targeted agents in patient-derived cell lines with oncogenic KRAS variants from multiple cancer types
A high-throughput screen of multi-cell type tumor spheroids was designed to identify active combinations of targeted small molecules and KRAS pathway inhibitors. Complex spheroids include a stromal component modeled by human endothelial cells (HUVEC) and fibroblasts modeled by human mesenchymal stem cells (MSCs). The concentration ranges selected for each drug and investigational agent were based upon clinically achievable concentrations if the clinical Cmax of the agent was known.
Compounds. The drugs and investigational agents: BI-3406 (NSC825286), BAY-293 (NSC824723), batoprotafib (TNO155; NSC825523), sotorasib (AMG 510; NSC818433), MRTX1257 (NSC819558), elimusertib (BAY 1895344; NSC800525), molibresib (GSK525762; NSC774829), temuterkib (LY3214996; NSC803410), venetoclax (NSC766270), alisertib (NSC759677), olaparib (NSC753686), talazoparib (NSC767125), erdafitinib (NSC781556), ipatasertib (NSC767898), cabozantinib (NSC761068), nintedanib (NSC756659), abemaciclib (NSC768073), docetaxel (NSC628503), trametinib (NSC758246), and sapanisertib (NSC764658) were obtained from the National Cancer Institute (NCI) Developmental Therapeutics Program Chemical Repository. The FDA-approved anticancer drug set is available from the Developmental Therapeutics Program. […] The stock solutions were prepared in dimethyl sulfoxide (DMSO, Sigma-Aldrich, St. Louis, MO, cat. D2650) at 800-fold the tested concentration and stored at -70 degrees C prior to their use. All drugs and investigational agents were tested over a range starting from a high concentration at or near the clinical Cmax and decreasing in half-log increments. If the clinical Cmax for an agent had not been determined, the highest concentration tested was 10 microM.
Cell Culture. All cells were maintained in an incubator at 37 degrees C and 5% CO2 with 95% humidity. The PDC lines were cultured according to standard operating procedures established by the NCI PDMR (https://pdmr.cancer.gov/sops/default.htm). Briefly, all PDCs were thawed and cultured in Matrigel-coated flasks prepared with a working solution of 1X Ham's F-12 nutrient mix, without supplementation (Invitrogen, Waltham, MA, cat. 11765054), 100 U/mL penicillin-streptomycin (Invitrogen, cat. 15140122), and 2.5% Matrigel (Corning Inc., Corning, NY, cat. 354248) for the first three passages. All PDCs were cultured in complete DMEM/F-12 media containing advanced DMEM/F-12 (Invitrogen, cat. 12634028), 4.9% defined fetal bovine serum, heat inactivated (HyClone Laboratories Inc., Logan, UT, cat. SH30070.03HI), 389 ng/mL hydrocortisone (Sigma-Aldrich, cat. H4001), 9.7 ng/mL human EGF recombinant protein (Invitrogen, cat. PHG0313), 23.4 microg/mL adenine (Sigma-Aldrich, cat. A2786), 97.3 U/mL penicillin-streptomycin (Invitrogen, cat. 15140122), 1.9 mM L-glutamine (Invitrogen, cat. 25030081), and 9.7 microM Y-27632 dihydrochloride (Tocris Bioscience, Bristol, United Kingdom, cat. 1254). The PDCs were cultured in complete DMEM/F12 media without 9.7 microM Y-27632 dihydrochloride for at least two passages prior to the screen. The established cell line HOP-62 was cultured in RPMI 1640 medium, HEPES (Invitrogen, cat. 22400105) with 10% defined fetal bovine serum (HyClone Laboratories Inc., cat. SH30070.03) and 2 mM L-glutamine (Invitrogen, cat. 25030081). The pooled donor HUVEC were cultured in endothelial cell growth medium 2 (PromoCell, Heidelberg, Germany, cat. C-22011) and the hMSC were cultured in mesenchymal stem cell growth medium 2 (PromoCell, cat. C-28009). For all experiments, HUVEC and hMSC were used at passages </=5, while the malignant cell lines were used at passages </=15. […]
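Also: spheroids exposed to agents for 7 days before readout.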

SMILES | viability, T/C (compound alone 0.316 µM) | viability, T/C (compound alone 3.16 µM) | viability, T/C (compound alone 1 µM) | viability, T/C (compound alone 10 µM) | other results
CN(C)C/C=C/C(=O)Nc1cc2c(Nc3ccc(F)c(Cl)c3)ncnc2cc1O[C@H]1CCOC1 | – | – | – | – | viability, T/C (compound alone 0.00316 µM): 94.3, 96, 71.5, 96.3, 99.8%
CC(=O)OC12COC1CC(O)C1(C)C(=O)C(O)C3=C(C)C(OC(=O)C(O)C(NC(=O)OC(C)(C)C)c4ccccc4)CC(O)(C(OC(=O)c4ccccc4)C21)C3(C)C (centres undefined) | 108 (2×), 98.5, 118, 126% | 106 (2×), 112, 121, 132% | – | – | –
CC(C)n1nc(-c2ccc3oc(N)nc3c2)c2c(N)ncnc21 | – | – | – | – | IC50: 45 nM, 32.2 nM, > 100 nM, 18 nM
COc1cc2nc(C)nc(NC(C)c3cc(N)cc(C(F)(F)F)c3)c2cc1OC1CCOC1 (centres undefined) | 90.8 (2×), 98.8, 104, 101 (2×), 115, 83.5, 87.2, 93.9, 87.5% [2021-08] and 85.8, 92.5, 86.2, 105, 88% [2021-09] | 98.5, 81.7, 92.5, 94.4, 75.5, 102, 79, 77.2, 83.1, 89.7, 87.3% [2021-08] and 69.2, 82.5, 87.5, 93.5, 78.2% [2021-09] | 113, 90.1, 121, 97.3 (2×), 94.8, 108, 79.7, 83.5, 93.3, 89.5% [2021-08] and 88.6, 92.3, 81.1, 94.3, 82.2% [2021-09] | 99.1, 71, 98.2, 58.5, 45.2 (2×), 36.3, 24.2, 53.5, 34.7, 35.4% [2021-08] and 23.6, 38.5, 19.5, 64.4, 41.6% [2021-09] | viability, T/C (compound alone 0.1 µM): 110, 105 (2×), 108, 99.5, 111, 83.1, 97.3, 92.8, 97.9, 100% [2021-08] and 94.5, 88, 93.6, 105, 92.6% [2021-09]; IC50 (run of 08/26/2021): 5.81 µM, > 10 µM, 8.69 µM, 7.26 µM, 7.24 µM; IC50 (run of 09/02/2021): 5.14 µM, 7.47 µM, 5.95 µM, > 10 µM, 7.66 µM
CC1OCC2(CCN(c3cnc(Sc4ccnc(N)c4Cl)c(N)n3)CC2)C1N (centres undefined) | 96.9, 100, 102, 72.6, 86, 93, 77.3, 83.7, 83.9, 85.5, 73.4% [2021-08] and 81.3, 79.1, 79.5, 86.4, 82.6, 82.8, 80.7, 76.6% [2021-09] | – | 112, 144, 138, 78, 72.7 (2×), 86, 76.6, 74.1, 76.1, 70.8% [2021-08] and 77.4, 80.3, 72.8, 75.5, 77.9, 78.4, 75.7, 70.5% [2021-09] | 84.7, 137, 88.3, 60.8, 59.6, 84.8, 59.8, 74.4, 56.8, 57.5, 57.8% [2021-08] and 61.4, 59.8, 71.6, 63.6, 70.3, 66.1, 59, 62.8, 57.1% [2021-09] | –
C=CC(=O)N1CCN(c2nc(OCC3CCCN3C)nc3c2CCN(c2cccc4cccc(C)c24)C3)CC1CC#N (centres undefined) | – | 111, 49.8, 67.5, 59.4, 46.6, 48.1, 52.1, 58.6, 49, 60, 58.4% [2021-08] and 49.7, 55.7, 52, 52.6, 47.6, 47.1% [2021-09] | 91.4, 94.1, 106, 91.5, 89.4, 76.7 (2×), 97, 85.4, 97.4, 81.7% [2021-08] and 77.6, 76, 81.8, 79.8, 78.2, 81.4% [2021-09] | – | viability, T/C (compound alone 0.1 µM): 95.7, 107, 114, 96.6, 118, 102 (2×), 112, 99.6, 103, 97.6% [2021-08] and 91.7, 94.6, 91.9, 95.6, 102, 99.6% [2021-09]
CNCc1ccccc1-c1csc(C(C)Nc2nc(C)nc3cc(OC)c(OC)cc23)c1 (centres undefined) | – | 97.9, 1.03, 1.38, 1.98, 2.17, 1.23, 1.17, 1.72, 1.78, 1.22, 0.94% [2021-08] and 0.43, 2.59, 5.37, 4.18% [2021-09] | 99.2, 107, 110, 100, 94.3, 89.2, 87.4, 89.3, 82.9, 87.1, 99.3% [2021-08] and 84.6, 92.5, 89.7, 98% [2021-09] | – | IC50 (run of 08/19/2021): 5.51, 1.81, 1.85, 1.8, 1.74, 1.67 µM
C=CC(=O)N1CCN(c2nc(=O)n(-c3c(C)ccnc3C(C)C)c3nc(-c4c(O)cccc4F)c(F)cc23)C(C)C1 (centres undefined) | – | 101 (2×), 107 (2×), 84.1, 85, 102, 109, 112, 108% [2021-08] and 114, 107, 101, 94.1% [2021-09] | – | 92.5, 84.5, 85.6, 83, 67, 70, 68.4, 84, 82.9, 90.3, 87% [2021-08] and 84.8, 75.9, 73.3, 72% [2021-09] | –
CC1(C)CCC(CN2CCN(c3ccc(C(=O)NS(=O)(=O)c4ccc(NCC5CCOCC5)c([N+](=O)[O-])c4)c(Oc4cnc5[nH]ccc5c4)c3)CC2)=C(c2ccc(Cl)cc2)C1 | – | 105, 71.7, 98.4, 90.7, 86.3% | – | 45.1, 12.6, 33.3, 46.7, 46.2% | –
